The results in this text go back to paper PMC11408250.

Amino acid sequences for entries named in this document (tags omitted).
UniProt P35222: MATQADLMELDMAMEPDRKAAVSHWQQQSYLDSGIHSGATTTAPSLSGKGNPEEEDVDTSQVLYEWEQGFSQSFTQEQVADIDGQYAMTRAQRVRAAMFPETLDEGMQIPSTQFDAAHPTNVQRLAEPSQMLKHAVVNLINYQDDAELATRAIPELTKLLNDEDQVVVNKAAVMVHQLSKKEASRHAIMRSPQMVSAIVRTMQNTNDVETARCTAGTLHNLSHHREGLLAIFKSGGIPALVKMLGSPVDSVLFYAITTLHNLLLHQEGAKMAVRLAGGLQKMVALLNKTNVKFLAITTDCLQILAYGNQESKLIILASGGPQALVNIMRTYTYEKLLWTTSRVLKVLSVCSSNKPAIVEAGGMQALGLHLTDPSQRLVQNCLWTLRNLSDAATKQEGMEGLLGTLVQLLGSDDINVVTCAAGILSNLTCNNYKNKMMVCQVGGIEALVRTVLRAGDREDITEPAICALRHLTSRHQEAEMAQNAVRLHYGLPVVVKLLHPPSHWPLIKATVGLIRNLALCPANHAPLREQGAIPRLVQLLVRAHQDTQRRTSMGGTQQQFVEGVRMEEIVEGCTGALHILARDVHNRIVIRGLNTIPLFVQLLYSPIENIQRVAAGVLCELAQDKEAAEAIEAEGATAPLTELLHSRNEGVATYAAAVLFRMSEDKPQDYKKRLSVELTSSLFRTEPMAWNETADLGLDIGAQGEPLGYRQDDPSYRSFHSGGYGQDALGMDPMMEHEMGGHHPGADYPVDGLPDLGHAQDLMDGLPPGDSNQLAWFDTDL

The target in assay [1] is T1, Myc-PCDH19-EC-FLAG (extracellular fragment of PCDH19) (human) (UniProt Q8TAB3).
T1 sequence: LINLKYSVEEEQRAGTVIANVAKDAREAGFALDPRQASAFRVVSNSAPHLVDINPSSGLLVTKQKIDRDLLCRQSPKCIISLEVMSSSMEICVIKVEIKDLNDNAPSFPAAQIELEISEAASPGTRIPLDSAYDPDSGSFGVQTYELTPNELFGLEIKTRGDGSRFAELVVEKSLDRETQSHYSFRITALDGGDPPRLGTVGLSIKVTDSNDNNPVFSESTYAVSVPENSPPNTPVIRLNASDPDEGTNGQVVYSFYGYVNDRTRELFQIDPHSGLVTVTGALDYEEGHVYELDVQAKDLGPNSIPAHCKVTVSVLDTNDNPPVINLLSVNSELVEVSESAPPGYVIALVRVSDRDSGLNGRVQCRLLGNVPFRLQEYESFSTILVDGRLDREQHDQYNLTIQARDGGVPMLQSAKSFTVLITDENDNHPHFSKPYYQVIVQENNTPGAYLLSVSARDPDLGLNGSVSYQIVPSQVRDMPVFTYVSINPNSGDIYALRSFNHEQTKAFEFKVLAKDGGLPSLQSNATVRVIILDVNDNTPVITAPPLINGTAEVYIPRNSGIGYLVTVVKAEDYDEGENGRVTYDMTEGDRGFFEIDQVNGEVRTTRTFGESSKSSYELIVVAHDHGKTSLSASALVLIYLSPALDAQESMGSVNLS
In words: co-IP; HEK293T transfected with Myc-PCDH19-FLAG (isoforms, variants or fragments) and β-catenin-V5, with or without CDH2-HA; anti-FLAG agarose beads 1 hour at 4 °C; Wash Buffer; western blot with anti-Myc, anti-HA and anti-V5. (In general: In western blotting, separated proteins are transferred to a membrane and probed.)

In assay [2] the target is T2, Myc-PCDH19-FLAG p.N340S (+Ex2) (human) (UniProt Q8TAB3).
T2 sequence: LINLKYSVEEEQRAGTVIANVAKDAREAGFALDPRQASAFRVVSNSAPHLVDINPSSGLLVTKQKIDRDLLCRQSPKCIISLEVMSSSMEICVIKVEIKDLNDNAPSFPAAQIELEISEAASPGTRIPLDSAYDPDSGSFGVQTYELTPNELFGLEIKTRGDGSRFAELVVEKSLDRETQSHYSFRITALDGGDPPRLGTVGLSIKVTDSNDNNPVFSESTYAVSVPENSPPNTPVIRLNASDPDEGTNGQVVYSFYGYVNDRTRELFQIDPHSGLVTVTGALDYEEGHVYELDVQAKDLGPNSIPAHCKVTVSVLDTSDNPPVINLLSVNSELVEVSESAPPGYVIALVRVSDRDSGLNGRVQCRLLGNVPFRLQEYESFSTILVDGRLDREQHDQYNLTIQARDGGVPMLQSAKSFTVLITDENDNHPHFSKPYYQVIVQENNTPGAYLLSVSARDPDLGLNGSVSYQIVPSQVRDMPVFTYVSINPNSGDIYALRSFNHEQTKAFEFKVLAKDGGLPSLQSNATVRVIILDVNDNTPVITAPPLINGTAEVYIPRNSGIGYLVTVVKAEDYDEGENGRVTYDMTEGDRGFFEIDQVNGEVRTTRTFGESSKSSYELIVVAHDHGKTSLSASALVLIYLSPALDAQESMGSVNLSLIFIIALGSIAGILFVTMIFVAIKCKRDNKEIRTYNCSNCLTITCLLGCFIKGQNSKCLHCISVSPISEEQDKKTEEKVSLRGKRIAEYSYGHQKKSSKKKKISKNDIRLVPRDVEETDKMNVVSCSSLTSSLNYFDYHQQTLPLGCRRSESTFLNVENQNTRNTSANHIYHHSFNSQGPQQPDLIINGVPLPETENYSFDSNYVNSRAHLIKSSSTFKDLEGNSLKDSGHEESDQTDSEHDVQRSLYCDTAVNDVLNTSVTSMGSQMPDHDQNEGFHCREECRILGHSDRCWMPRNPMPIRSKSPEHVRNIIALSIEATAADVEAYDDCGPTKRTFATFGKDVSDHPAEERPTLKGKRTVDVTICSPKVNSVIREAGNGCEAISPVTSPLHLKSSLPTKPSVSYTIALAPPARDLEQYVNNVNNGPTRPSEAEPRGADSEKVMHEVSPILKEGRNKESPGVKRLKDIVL
The description is as above.

No constants are given. Whether binding was seen depends on the method and setting. In cells and extracts the contact can be indirect. Some entries that bind do so weakly or less than the wild type. Sequences can lack the tags named with a protein.

“β-catenin-V5 (from UniProt P35222 1-781)”: the binding entry in assay [1] and in assay [2] was “binds” each time.
